# Test results published in PubChem BioAssay AID686978 (National Center for Advancing Translational Sciences (NCATS), 2013).
# Out of some 420,000 compounds screened, about 64,000 (15%) were called active. The inconclusive results got no clear call from the source; some entries with a clear call stand among them for comparison. Calls follow the shape of the dose curve; as a rule, active = well fitted inhibition curve with a large enough effect; inconclusive = small, poorly fitted or top-dose-only effect; inactive = flat fitted curve, though single readings scatter. No potency is given beside an inconclusive call; the fits are too rough.
# Experiment: qHTS for Inhibitors of human tyrosyl-DNA phosphodiesterase 1 (TDP1): qHTS in cells in absence of CPT; also: nearly all actives have a fitted effect of over 55% in size
# Conditions: DT40 Tdp1-/- hTDP1 cells, no CPT, ATP luminescence, 48 h; activity change, negative = growth inhibition: at 46.2 µM (top of the series) unless noted
# Method in brief: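 Readout: luminescence from CellTiter-Glo after 30 min in the dark at RT. Cells: DT40 Tdp1-/- with stable hTDP1, 400/well. Exposure: compounds alone, ≥48 hr, 37 °C.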
# % is scaled to controls: 0 for no effect and ±100 for the full control effect; potency is read from the fitted curve at half-maximal effect; tags tell the direction and shape of the fitted curve.
Structure (SMILES),Potency,"activity change, negative = growth inhibition"
Cc1ccc(C)c(S(=O)(=O)N2CCN(C(=O)c3cc(S(=O)(=O)NCc4ccccc4)ccc3C)CC2)c1,"inconclusive [inhibitor, single point]",
CCc1ccc(-n2nnc(-c3nc(-c4ccc(C)cc4)no3)c2N)cc1,inactive,
CC(=O)Nc1ccc(NC(=O)COC(=O)c2cc([N+](=O)[O-])ccc2N2CCOCC2)cc1,"inconclusive [inhibitor, partial curve]",
CCC(C)Nc1nc2ccccc2n2c(C)nnc12 (centres undefined),inactive,
COc1cccc(N2CCN(C(=O)Cn3nc(C)n4c(cc5c(OC)cccc54)c3=O)CC2)c1,inactive,
Cc1cc(C(=O)NNC(=O)C(C)(C)Oc2ccc(Cl)cc2)c(C)o1,"inconclusive [inhibitor, single point]",
Cc1cc(/C=C(/C#N)C(=O)O)c(C)n1CCC(C)C,"inconclusive [inhibitor, single point]",
COc1ccc(/C=C2\CCCC3C2=NN(C(=O)c2scnc2C)C3c2ccc(OC)cc2)cc1 (centres undefined),"inconclusive [inhibitor, single point]",
COCc1cc(C)nc2c1C(=O)NC(c1ccc(Br)cc1)N2Cc1ccccc1 (centres undefined),"inconclusive [inhibitor, partial curve]",
O=C1c2cccc3cccc(c23)C(=O)N1c1ccncc1,"inconclusive [inhibitor, single point]",
CN(C)c1ccc(C=NN2CCCCCC2)cc1,"inconclusive [inhibitor, single point]",
CC(=O)[C@@H]1[C@@H](C(=O)c2ccc(F)cc2)[C@]2(C(=O)Nc3ccccc32)[C@H]2C=Cc3cc(F)ccc3N12,"inconclusive [inhibitor, single point]",
O=C(Nc1sc2c(c1C(=O)NCc1ccccc1)CCCC2)c1cc(=O)c2ccccc2o1,,inconclusive: -14% [inhibitor]
COc1nnc(-c2ccc(N3CCCCC3)c(NC(=O)c3ccccc3Cl)c2)c2ccccc12,active: 6.51 µM,
C=CCn1c(=O)c(C(=O)NCc2ccc(Cl)cc2)c(O)c2ccccc21,active: 23.1 µM,
CC(C)CN1CCC(=O)N([C@H](CSc2ccc(Br)cc2)Cc2ccccc2)CC1,active: 18.4 µM,
O=C(c1cc(COc2ccc(F)cc2Cl)on1)N1CCC(OCc2cccnc2)CC1,active: 9.2 µM,
Cc1ccccc1CCNC(=O)CCn1ccc2cc(S(=O)(=O)N3CCCC3)ccc21,"inconclusive [inhibitor, partial curve]",
O=C1NC[C@H](c2ccccc2)N(CCc2cc(C(F)(F)F)cc(C(F)(F)F)c2)C1=O,,inconclusive: -30.4% [inhibitor]
COc1ccc(Cl)cc1Nc1nc(-c2sc(NC(=O)c3ccco3)nc2C)cs1,"inconclusive [inhibitor, single point]",
O=C(c1cccs1)c1coc2ccc(O)c(CN3CCOCC3)c12,"inconclusive [inhibitor, single point]",
O=C(NNC(=S)Nc1ccccc1Cl)c1ccccc1Cl,"inconclusive [inhibitor, single point]",

Structure (SMILES),Potency,"activity change, negative = growth inhibition"
CN(C)C(=O)N1CCC(C(=O)NCc2cccs2)CC1,inactive,
O=[N+]([O-])c1cccc(/C=C/C=N/Nc2nc(N3CCCCC3)nc(N3CCCCC3)n2)c1,"inconclusive [inhibitor, single point]",
CN(CC(=O)Nc1c(Cl)cccc1Cl)C(=O)c1cccc(S(=O)(=O)NCc2ccccc2)c1,"inconclusive [inhibitor, partial curve]",
CCOC(=O)Cn1nc(C)c2c1CCCC2=O,inactive,
COCCNC(=O)CSc1nc2c(n1-c1ccccc1)CCCC2,inactive,
COC(=O)c1ccc(CSc2nc(C(F)F)cc(C)c2C#N)o1,"inconclusive [inhibitor, single point]",
Cc1csc(NCC(=O)c2c[nH]c3ccccc23)n1,"inconclusive [inhibitor, single point]",
Cc1cccc(-n2c(O)c(C=NC3CCS(=O)(=O)C3)c3ccccc3c2=O)c1C (centres undefined),"inconclusive [inhibitor, full curve, poor fit]",
Cc1cccc(C(=O)NC(=S)Nc2ccc(N3CCOCC3)cc2)c1,"inconclusive [inhibitor, single point]",
COc1ccc(C(=O)N2CCOC2CNC(=O)C(=O)NCc2ccc(Cl)cc2)cc1 (centres undefined),"inconclusive [inhibitor, single point]",
CC(=O)c1c(N2CCOCC2)nc(=S)n(-c2ccccc2)c1C,inactive,
CNC(=S)NN=C(C)CCCC(C)=NNC(=S)NC,active: 0.0206 µM,
CCc1ccc(NC(=O)CSc2nc3c(c(=O)[nH]2)CN(Cc2ccc(C)cc2)CC3)cc1,"inconclusive [inhibitor, single point]",
NC(CO)c1csc(NC(=O)Nc2ccccc2Cc2ccccc2)n1 (centres undefined),"inconclusive [inhibitor, single point]",
O=C(CCNS(=O)(=O)c1ccc(Br)cc1)N1CCN(c2ccccc2O)CC1,"inconclusive [inhibitor, single point]",
COc1ccc(C2C(C(=O)c3cccs3)=C(O)C(=O)N2c2nnc(C)s2)cc1OC (centres undefined),inactive,
O=C(O)COCC(=O)Nc1ccc(-n2nc(C(F)(F)F)cc2-c2cccs2)cc1,inactive,
O=C(CSC1=NCCS1)N1N=C(c2cccs2)CC1c1ccc(F)cc1 (centres undefined),"inconclusive [inhibitor, single point]",
O=C(NC1CC2CCCC(C1)N2C(=O)Nc1ccccc1F)C1CC1 (centres undefined),"inconclusive [inhibitor, full curve]",
CC1CCN(C(=O)Cn2cc(SCC(=O)Nc3ccccc3)c3ccccc32)CC1,inactive,
CCN(CC)C(=O)C1=C(C)N(CCC2=CCCCC2)C(=O)C(CC(=O)NC2CCCC2)C1 (centres undefined),inactive,
CC(C)S(=O)(=O)c1csc(C(=O)Nc2ccc(F)cc2)c1N,"inconclusive [inhibitor, single point]",
